Reference: the antibiotic and cytotoxicity screens of Wong et al. (2023)
This is one part of the list.

Legend:
HSkMC = human skeletal muscle cells; assay: cytotoxicity call (relative viability < 0.9); conditions: 10 µM
HepG2 = assay: cytotoxicity call (relative viability < 0.9); conditions: 10 µM
S. aureus RN4220 = assay: growth inhibition call (relative growth <= 0.2); conditions: 50 µM

Row | Compound | cytotoxicity call (HSkMC) | cytotoxicity call (HepG2) | growth inhibition call (S. aureus RN4220)
1 | COc1ccc(CN(C)C[C@@H]2OCCCC[C@H](C)Oc3ccc(NS(=O)(=O)c4ccc(OC)cc4)cc3C(=O)N([C@@H](C)CO)C[C@@H]2C)cc1 | inactive | active | inactive
2 | CN1CCN(C(=O)C[C@@H]2CC[C@@H]3[C@H](COC[C@H](O)CN3C(=O)C3CC3)O2)CC1 | inactive | inactive | inactive
3 | CCCCCNCC(N)=O | inactive | inactive | inactive
4 | C[C@@H]1CCCCO[C@@H](CN(C)Cc2ccc(C(=O)O)cc2)[C@@H](C)CN([C@@H](C)CO)C(=O)c2cc(NC(=O)Nc3ccc4c(c3)OCO4)ccc2O1 | inactive | inactive | inactive
5 | COc1ccc(S(=O)(=O)Nc2ccc3c(c2)CC(=O)N([C@@H](C)CO)C[C@@H](C)[C@H](CN(C)S(=O)(=O)c2c(C)noc2C)O3)cc1 | inactive | inactive | inactive
6 | CS(=O)(=O)N1[C@@H]2c3ccc(-c4ccccc4)c(=O)n3C[C@H]1[C@H](CO)[C@H]2C(=O)NCC1CC1 | inactive | inactive | inactive
7 | O=C(C[C@H]1C[C@H]2c3cc(NC(=O)Cc4ccncc4)ccc3O[C@H]2[C@H](CO)O1)NCc1ccc2c(c1)OCO2 | inactive | inactive | inactive
8 | C[C@@H]1CCCCO[C@@H](CN(C)S(=O)(=O)c2cccs2)[C@@H](C)CN([C@@H](C)CO)C(=O)c2cc(NC(=O)Nc3ccc(C(F)(F)F)cc3)ccc2O1 | inactive | inactive | inactive
9 | C[C@H]1CCCCO[C@@H](CN(C)C(=O)Nc2ccccc2)[C@@H](C)CN([C@@H](C)CO)C(=O)c2cc(NC(=O)CCC(F)(F)F)ccc2O1 | inactive | inactive | inactive
10 | C[C@@H]1CN([C@H](C)CO)S(=O)(=O)c2ccc(C3=CCCCC3)cc2O[C@H]1CN(C)C(=O)C1CCOCC1 | inactive | inactive | inactive
11 | CC(C)CC#Cc1cnc2c(c1)C(=O)N([C@H](C)CO)C[C@H](C)[C@@H](CN(C)S(=O)(=O)c1cccs1)O2 | inactive | inactive | inactive
12 | COc1cc2nc(N3CCN(C(=O)C4CCCO4)CC3)nc(N)c2cc1OC.Cl (centres undefined) | inactive | active | inactive
13 | COc1ccc(S(=O)(=O)Nc2ccc3c(c2)C(=O)N([C@@H](C)CO)C[C@@H](C)[C@@H](CN(C)Cc2ccc(Oc4ccccc4)cc2)O3)cc1 | inactive | active | inactive
14 | Cc1noc(C)c1NC(=O)N(C)C[C@@H]1Oc2ccc(NC(=O)C3CC3)cc2CC(=O)N([C@H](C)CO)C[C@H]1C | inactive | inactive | inactive
15 | CN1C(=O)c2cc(NC(=O)c3ccc(F)cc3)ccc2OC[C@@H]2O[C@H](CC(=O)N3CCOCC3)CC[C@@H]21 | inactive | inactive | inactive
16 | Cc1noc(C)c1NC(=O)Nc1ccc2c(c1)C(=O)N([C@@H](C)CO)C[C@@H](C)[C@@H](CN(C)C(=O)C1CCCCC1)OCCCC[C@@H](C)O2 | inactive | inactive | inactive
17 | C[C@@H]1CN([C@@H](C)CO)C(=O)c2cc(NC(=O)NC3CCCCC3)ccc2O[C@@H](C)CCCCO[C@@H]1CN(C)S(=O)(=O)c1ccc(Cl)cc1 | inactive | inactive | inactive
18 | CC(C)[Si]1(C(C)C)O[C@@H](c2ccccc2)c2cc(-c3ccc(-c4ccc(Cl)c(Cl)c4)o3)nc(CCc3ccccc3)c21 | inactive | inactive | inactive
19 | C[C@@H]1CCCCO[C@@H](CN(C)Cc2ccc(C(F)(F)F)cc2)[C@@H](C)CN([C@H](C)CO)C(=O)c2cc(NS(=O)(=O)c3ccccc3)ccc2O1 | inactive | active | inactive
20 | COC(=O)c1cn(-c2cccc(N)c2)nn1 | inactive | inactive | inactive

Row | Compound | cytotoxicity call (HSkMC) | cytotoxicity call (HepG2) | growth inhibition call (S. aureus RN4220)
21 | Cc1noc(C)c1S(=O)(=O)N(C)C[C@H]1Oc2c(NS(C)(=O)=O)cccc2C(=O)N([C@@H](C)CO)C[C@H]1C | inactive | inactive | inactive
22 | COc1ccc(NC(=O)Nc2ccc3c(c2)C(=O)N([C@H](C)CO)C[C@@H](C)[C@H](CN(C)Cc2ccccc2)OCCCC[C@@H](C)O3)cc1 | inactive | active | inactive
23 | CC[C@@H](N)c1ccc(C)c(C)c1 | inactive | inactive | inactive
24 | Cc1cc(=O)n2nc(C(=O)O)nc2[nH]1 | inactive | inactive | inactive
25 | C[C@@H]1CN([C@H](C)CO)S(=O)(=O)c2ccc(-c3ccncc3)cc2O[C@H]1CN(C)S(=O)(=O)c1ccccc1F | inactive | inactive | inactive
26 | COc1ccc(S(=O)(=O)Nc2ccc3c(c2)C(=O)N([C@@H](C)CO)C[C@H](C)[C@H](CN(C)Cc2ccncc2)O3)cc1 | inactive | inactive | inactive
27 | CC1(C)[C@H](C(=O)O)CC[C@@]1(C)C(N)=O | inactive | inactive | inactive
28 | C[C@H]1CN([C@@H](C)CO)C(=O)c2cccc(NC(=O)Nc3cccc4ccccc34)c2O[C@@H]1CN(C)C(=O)Nc1cccc2ccccc12 | inactive | inactive | inactive
29 | C[C@H](CO)N1C[C@H](C)[C@H](CN(C)C(=O)c2cnccn2)Oc2ncc(C#Cc3ccccn3)cc2C1=O | inactive | inactive | inactive
30 | O=C(C[C@@H]1C[C@H]2c3cc(NS(=O)(=O)c4ccc(F)cc4)ccc3O[C@H]2[C@@H](CO)O1)N1CCOCC1 | inactive | inactive | inactive
31 | Nc1ncc2[nH]cnc2n1 | inactive | inactive | inactive
32 | CN1C(=O)c2cc(NS(C)(=O)=O)ccc2OC[C@H]2O[C@@H](CC(=O)N3CCOCC3)CC[C@@H]21 | inactive | inactive | inactive
33 | Cn1cc(N2C[C@]3(CNCCOC3)OCC2=O)cn1 | inactive | inactive | inactive
34 | C[C@@H]1CN([C@@H](C)CO)C(=O)c2cc(NC(=O)Nc3ccc(F)cc3)ccc2O[C@@H]1CN(C)S(C)(=O)=O | inactive | inactive | inactive
35 | C[C@H](CO)N1C[C@H](C)[C@H](CN(C)CC2CCCCC2)Oc2c(NC(=O)Nc3ccc(F)cc3)cccc2C1=O | inactive | inactive | inactive
36 | CC1=NN2C(=NN[C@@]2(C)c2ccccc2)NC1=O | inactive | inactive | inactive
37 | C[C@H]1CN([C@@H](C)CO)C(=O)c2c(c3ccccc3n2C)-c2ccccc2CO[C@@H]1CN(C)Cc1ccc(Oc2ccccc2)cc1 | inactive | inactive | inactive
38 | C[C@@H]1CCCCO[C@@H](CN(C)C(=O)CCC(F)(F)F)[C@H](C)CN([C@H](C)CO)C(=O)c2cc(NS(=O)(=O)c3cccs3)ccc2O1 | inactive | inactive | inactive
39 | C[C@@H]1CN([C@H](C)CO)C(=O)c2cc(NS(=O)(=O)c3cn(C)cn3)ccc2O[C@@H]1CN(C)Cc1ccc2c(c1)OCO2 | inactive | inactive | inactive
40 | C[C@H](CO)N1C[C@H](C)[C@H](CN(C)C(=O)Nc2ccc(C(F)(F)F)cc2)Oc2ccc(NS(=O)(=O)c3ccc(Cl)cc3)cc2CC1=O | inactive | inactive | inactive

Row | Compound | cytotoxicity call (HSkMC) | cytotoxicity call (HepG2) | growth inhibition call (S. aureus RN4220)
41 | C[C@H]1CC/C=C\[C@H]2O[C@@]34C=CCN(CCN5CCOCC5)C(=O)[C@H]3N(CCO)C(=O)[C@@H]4[C@@H]2C(=O)O1 | inactive | inactive | inactive
42 | CN1C(=O)c2cc(NC(=O)C3CCOCC3)ccc2OC[C@H]2O[C@@H](CC(=O)NCc3ccccc3F)CC[C@H]21 | inactive | inactive | inactive
43 | C[C@@H]1CN([C@@H](C)CO)C(=O)Cc2cc(NC(=O)CCCN(C)C)ccc2O[C@H]1CN(C)C(=O)Nc1ccccc1 | inactive | inactive | inactive
44 | CN(C)S(=O)(=O)N1C[C@H]2C[C@H](C(=O)Nc3cccnc3)[C@@H](C1)O2 | inactive | inactive | inactive
45 | CC(=O)Oc1c(C)cccc1C(=O)O | inactive | inactive | inactive
46 | COc1ccc(NC(=O)N(C)C[C@H]2OCCCC[C@@H](C)Oc3ccc(NS(=O)(=O)c4ccc(Cl)cc4)cc3C(=O)N([C@@H](C)CO)C[C@H]2C)cc1 | inactive | inactive | inactive
47 | CCCNC(=O)c1cc2c(c(-c3cccc(-c4cccc(F)c4)c3)n1)[C@H](CCO)N([S@@](=O)C(C)(C)C)C2 | inactive | inactive | active
48 | CC(C)=CCC[C@@H](C)CCO | inactive | inactive | inactive
49 | CCS(=O)(=O)NCC[C@H]1CC[C@@H](NS(=O)(=O)c2ccccc2C)[C@H](CO)O1 | inactive | inactive | inactive
50 | CCc1ccc(-c2cc3c(=O)n(CC(=O)NCCN4CCOCC4)nc(C)n3n2)cc1 | inactive | inactive | inactive
51 | COc1ccc(NC(=O)Nc2ccc3c(c2)C(=O)N([C@@H](C)CO)C[C@H](C)[C@H](CN(C)C(=O)c2ccccc2)OCCCC[C@H](C)O3)cc1 | inactive | inactive | inactive
52 | C[C@@H]1CN([C@H](C)CO)C(=O)Cc2cc(NC(=O)Nc3cccc4ccccc34)ccc2O[C@H]1CN(C)S(=O)(=O)c1ccc(Cl)cc1 | inactive | inactive | inactive
53 | C[C@H](CO)N1C[C@H](C)[C@H](CN(C)C(=O)Nc2cccc3ccccc23)Oc2ccc(NC(=O)Nc3ccc(F)cc3)cc2CC1=O | inactive | inactive | inactive
54 | COc1ccc(S(=O)(=O)Nc2cccc3c2O[C@@H](CN(C)CC2CC2)[C@@H](C)CN([C@H](C)CO)C3=O)cc1 | inactive | inactive | inactive
55 | C[C@@H]1CN([C@@H](C)CO)C(=O)c2cc(C#CC3(O)CCCC3)cnc2O[C@@H]1CN(C)C(=O)Cc1ccccc1 | inactive | inactive | inactive
56 | Cc1cn([C@H]2C[C@@H](NC(=O)C(C)(C)C)[C@@H](CO)O2)c(=O)[nH]c1=O | inactive | inactive | inactive
57 | CC1OC1P(=O)([O-])[O-].[Ca+2] (centres undefined) | inactive | inactive | inactive
58 | C[C@@H]1CN([C@@H](C)CO)C(=O)Cc2cc(NC(=O)Cn3cnnn3)ccc2O[C@H]1CN(C)CC1CC1 | inactive | inactive | inactive
